Laboratory results: PMC10470960
Where a chain is given by its changes, count along the chain named. These are yes or no findings as the source states them, for the method shown. Some entries that bind do so weakly or less than the wild type. Tags and fused reporters may be left off the sequences shown.

What was measured:
Assay in all cases: two-hybrid; KAR4-GBD alleles with IME4-GAD in PJ69-4 diploids; 24 hours in meiosis-inducing conditions, then 10-fold serial dilutions on SC-HIS and SC-ADE (HIS3 and ADE2 reporters); graded ++++ to -
[1] = biological target: T1, Kar4p A85P fused to the Gal4p DNA-binding domain (S. cerevisiae) (UniProt P25583)
T1 sequence: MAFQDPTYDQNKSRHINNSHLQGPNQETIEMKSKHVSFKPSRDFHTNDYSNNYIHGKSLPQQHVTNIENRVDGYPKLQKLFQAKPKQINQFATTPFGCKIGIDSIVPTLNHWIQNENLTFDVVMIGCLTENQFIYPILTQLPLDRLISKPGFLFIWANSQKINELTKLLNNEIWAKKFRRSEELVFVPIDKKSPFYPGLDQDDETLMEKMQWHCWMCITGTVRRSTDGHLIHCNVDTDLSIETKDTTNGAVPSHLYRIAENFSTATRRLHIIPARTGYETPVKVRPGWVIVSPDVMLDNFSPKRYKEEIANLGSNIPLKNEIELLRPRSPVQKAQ

[2] = biological target: T2, Kar4p M207R fused to the Gal4p DNA-binding domain (S. cerevisiae) (UniProt P25583)
T2 sequence: T1 sequence with P85A, M207R

[3] = biological target: T3, Kar4p P273L fused to the Gal4p DNA-binding domain (S. cerevisiae) (UniProt P25583)
T3 sequence: T1 sequence with P85A, P273L

[4] = biological target: T4, Kar4p P293L fused to the Gal4p DNA-binding domain (S. cerevisiae) (UniProt P25583)
T4 sequence: T1 sequence with P85A, P293L

[5] = biological target: T5, Kar4p Q132K fused to the Gal4p DNA-binding domain (S. cerevisiae) (UniProt P25583)
T5 sequence: T1 sequence with P85A, Q132K

[6] = biological target: T6, Kar4p fused to the Gal4p DNA-binding domain (S. cerevisiae) (UniProt P25583)
T6 sequence: T1 sequence with P85A

binding [1]: binds
binding [2]: binds
binding [3]: binds
binding [4]: no binding
binding [5]: no binding
binding [6]: binds
B1: Ime4p fused to the Gal4p activating domain (protein, UniProt P41833 1-600)
chain: MINDKLVHFLIQNYDDILRAPLSGQLKDVYSLYISGGYDDEMQKLRNDKDEVLQFEQFWNDLQDIIFATPQSIQFDQNLLVADRPEKIVYLDVFSLKILYNKFHAFYYTLKSSSSSCEEKVSSLTTKPEADSEKDQLLGRLLGVLNWDVNVSNQGLPREQLSNRLQNLLREKPSSFQLAKERAKYTTEVIEYIPICSDYSHASLLSTSVYIVNNKIVSLQWSKISACQENHPGLIECIQSKIHFIPNIKPQTDISLGDCSYLDTCHKLNTCRYIHYLQYIPSCLQERADRETASENKRIRSNVSIPFYTLGNCSAHCIKKALPAQWIRCDVRKFDFRVLGKFSVVIADPAWNIHMNLPYGTCNDIELLGLPLHELQDEGIIFLWVTGRAIELGKESLNNWGYNVINEVSWIKTNQLGRTIVTGRTGHWLNHSKEHLLVGLKGNPKWINKHIDVDLIVSMTRETSRKPDELYGIAERLAGTHARKLEIFGRDHNTRPGWFTIGNQLTGNCIYEMDVERKYQEFMKSKTGTSHTGTKKIDKKQPSKLQQQHQQQYWNNMDMGSGKYYAEAKQNPMNQKHTPFESKQQQKQQFQTLNNLYFAQ
